According to PubChem BioAssay AID602310 (National Center for Advancing Translational Sciences (NCATS), 2012):
In all, about 410,000 compounds went through this assay and about 310 (0.076%) were called active. This list was built around the results that the source calls inconclusive (neither active nor inactive); the mix of calls is not that of the screen. Calls follow the shape of the dose curve; as a rule, active = well fitted curve in the direction sought with a large enough effect; inconclusive = small, poorly fitted or top-dose-only effect; inactive = flat fitted curve, though single readings scatter. A potency beside an inconclusive call is a rough fit, not a confirmed value.

Target: DNA dC->dU-editing enzyme APOBEC-3G (Homo sapiens) (UniProt Q9HC16)
Sequence of UniProt Q9HC16 (Q9HC16 whole entry, looked up): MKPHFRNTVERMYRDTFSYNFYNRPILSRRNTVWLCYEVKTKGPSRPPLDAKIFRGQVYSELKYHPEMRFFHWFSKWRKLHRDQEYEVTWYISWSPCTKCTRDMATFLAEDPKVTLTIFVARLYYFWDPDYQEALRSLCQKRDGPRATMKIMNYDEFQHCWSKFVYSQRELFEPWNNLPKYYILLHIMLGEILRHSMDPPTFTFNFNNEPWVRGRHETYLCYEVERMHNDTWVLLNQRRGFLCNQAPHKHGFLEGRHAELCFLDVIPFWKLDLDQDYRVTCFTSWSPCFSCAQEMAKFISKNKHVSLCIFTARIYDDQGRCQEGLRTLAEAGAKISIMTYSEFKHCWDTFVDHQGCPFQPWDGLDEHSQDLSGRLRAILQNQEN
Assay: qHTS for Inhibitors of Vif-A3G Interactions: qHTS; also: nearly all actives have a fitted effect of over 60% in size
Details: HeLa A3G-eYFP + Vif (tagged APOBEC3G with the HIV-1 protein that degrades it), YFP fluorescence, overnight; series mostly up to 46.1 µM
How it was run: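 Read-out is eYFP fluorescence (Ex 488/Em 500-530) from Vif-expressing HeLa A3G-eYFP cells; more signal means A3G escaped Vif-mediated degradation. Cells plated overnight, compound pinned in, incubated overnight at 37 deg C.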
Potency is read from the fitted curve at half-maximal effect; tags tell the direction and shape of the fitted curve.

| Compound | Potency |
| --- | --- |
| COc1cccc(-c2noc(CCCC(=O)NC3CCCC3)n2)c1 | inactive |
| COc1cc(NC(=O)C2CCN(S(=O)(=O)c3c(C)noc3/C=C/c3ccccc3F)CC2)cc(OC)c1OC | inactive |
| Nc1cc2c3ccccc3ccc2c2ccccc12 | inconclusive: 17.8 µM [inhibitor, single point] |
| CN(C)c1ccc(/C=C2\C=Cc3ccccc32)cc1[N+](=O)[O-] | inactive |
| COc1cc2c(cc1OC)C(C)N(C(=O)c1c(-c3ccccc3)noc1C)CC2 (configuration not stated) | inconclusive: 11.2 µM [inhibitor, partial curve, poor fit] |
| Brc1ccccc1CN1CCN(Cc2c[nH]c3ccccc23)CC1 | inactive |
| CC(C)c1ccc2oc(-c3cc(N)ccc3O)nc2c1 | inactive |
| Cc1ccc(NC(=O)CSc2ccccc2NC(=O)c2ccccc2)cc1Cl | inactive |
| CCOc1cc(-c2cc(-c3ccc(C)cc3)nc(N)c2C#N)ccc1O | inconclusive: 3.55 µM [inhibitor, single point] |
| Cc1nn2cc(-c3ccc(OC(C)C)cc3)nc2s1 | inactive |
| COc1ccc(NS(=O)(=O)c2cc(NC(=O)c3ccco3)ccc2N2CCCCC2)cc1 | inconclusive: 7.08 µM [inhibitor, full curve] |
| CCn1ccnc1CN(C)Cc1cn[nH]c1-c1ccc(OC)c(F)c1 | inactive |
| CCCCCCC[n+]1c(/C=C/c2ccc(N(C)C)cc2)sc2ccccc21 | inconclusive: 35.5 µM [inhibitor, partial curve, poor fit] |
| CC(=O)c1cccc(-c2cnc3c(NC=O)cc(-c4cccc(C(=O)N(C)C)c4)cn23)c1 | inconclusive: 15.8 µM [inhibitor, single point] |
| Nc1nc(N)c2c(ccc3c2ccn3Cc2cccc([N+](=O)[O-])c2)n1 | inconclusive: 3.55 µM [inhibitor, single point] |
| Cc1ccc2ccc3cc(C(=O)N4CCN(c5ccccc5F)CC4)nc3c2[nH]1 | inactive |
| Cc1nc(C)c(C(=O)Nc2ccc(Oc3ccccc3)cc2)o1 | inactive |
| Cc1ccc(NC(=O)Cn2c(=O)n(Cc3nc(-c4ccccc4)no3)c(=O)c3ccccc32)c(C)c1 | inactive |
| O=C(N/N=C/c1ccco1)c1cc(-c2ccccc2)nc2ccccc12 | inconclusive: 22.4 µM [inhibitor, single point] |
| O=C(Cn1nc2c(cc1=O)CCCC2)NCc1ccc(Cl)cc1 | inconclusive: 10 µM [inhibitor, partial curve] |
| CCCNC(=O)c1ccc2c(c1)N=C(CCC)c1ccccc1S2 | inconclusive: 0.562 µM [inhibitor, full curve, poor fit] |
| Cc1cccc(-c2nc(SCc3cc(=O)c4c(C)cc(C)cc4[nH]3)n[nH]2)c1 | inconclusive: 17.8 µM [inhibitor, single point] |
| COc1ccc2[nH]cc(C=O)c2c1 | inactive |
| Cc1c(C(=O)N/N=C/c2ccccc2)[nH]c2c([N+](=O)[O-])cccc12 | inconclusive: 1.26 µM [inhibitor, full curve, poor fit] |

| Compound | Potency |
| --- | --- |
| Clc1ccc(C2=Nn3c(nnc3-c3n[nH]c4c3CCC4)SC2)cc1Cl | inconclusive: 7.94 µM [inhibitor, partial curve, poor fit] |
| Nc1c(C(=O)N2CCOCC2)sc(=S)n1-c1ccccc1 | inactive |
| COc1cc(C2Nc3ccc4ncccc4c3C3=C2C(=O)CCC3)cc(OC)c1O (configuration not stated) | inconclusive: 7.08 µM [inhibitor, partial curve, poor fit] |
| COc1ccc(-n2c(SCC(=O)Nc3nccs3)nc3sc4c(c3c2=O)CCN(C)C4)cc1 | inactive |
| Cc1ccc(NC(=O)c2ccc3c(c2)NC(=O)c2ccccc2S3)c(Cl)c1 | inconclusive: 3.16 µM [inhibitor, single point] |
| C=CC(=O)Nc1cccc(Nc2nc(N[C@H]3CC[C@H](N(C)C)CC3)nc3c2ncn3C(C)C)c1 | inconclusive: 3.16 µM [inhibitor, partial curve] |
| Cc1ccccc1N1CCN(C2=NC(=O)/C(=C\c3cccs3)S2)CC1 | inactive |
| Clc1ccc(C2=CSC3=Nc4cccc5cccc(c45)N23)cc1 | inconclusive: 25.1 µM [inhibitor, single point] |
| Cc1cc2c(C)cc(=O)[nH]c2cc1NC(=O)CCl | inconclusive: 25.1 µM [inhibitor, single point] |
| O=C(Nc1ccccc1O)c1ccc(NS(=O)(=O)c2cccc3cccnc23)cc1 | inconclusive: 35.5 µM [inhibitor, single point] |
| Cc1ccccc1S(=O)(=O)Cc1ccc(C(=O)N2CCN(c3cccc(C)c3C)CC2)o1 | inconclusive: 2.24 µM [inhibitor, partial curve, poor fit] |
| Clc1ccccc1Nc1nc(NCc2ccccc2)nc2ccsc12 | inactive |
| CCCNC(=O)Cn1c(=O)/c(=C/c2ccc(-c3ccc([N+](=O)[O-])cc3)o2)s/c1=C\C(=O)C(C)(C)C | inactive |
| Cc1ccc(NS(=O)(=O)c2cc(C(=O)NCCSC3CCCCC3)ccc2C)cc1 | inactive |
| Cc1nn2c(N3CCCC3)c3c(nc2c1-c1ccccc1)CCC3 | inactive |
| CC(N=C1NS(=O)(=O)c2ccccc21)C(=O)Nc1ccc(F)cc1Cl (configuration not stated) | inactive |
| O=C1c2ccccc2C(=O)N1CCN1CCCCC1 | inconclusive: 5.62 µM [inhibitor, single point] |
| O=[N+]([O-])/C=C/c1cn(Cc2ccccc2)c2ccccc12 | inconclusive: 10 µM [inhibitor, partial curve] |
| O=C(Nc1nc(-c2ccccn2)cs1)c1ncc(Cl)c(Cl)c1Cl | inconclusive: 22.4 µM [inhibitor, single point] |
| COc1ccc(NC(=O)c2c(NCc3cccc(F)c3)sc3c2CCC3)c(OC)c1 | inconclusive: 20 µM [inhibitor, single point] |
| COc1cccc(-c2cc(NC=O)c3ncc(-c4cccc(C(=O)N(C)C)c4)n3c2)c1 | inconclusive: 15.8 µM [inhibitor, single point] |
| CN1/C(=C/c2cccc[n+]2CCO)Sc2ccccc21 | inactive |
| O=C(C(Br)=Cc1ccccc1)c1ccccc1 | inconclusive: 5.62 µM [inhibitor, full curve] |
| CC[n+]1c(/C=C/N(C)c2ccccc2)oc2ccc(F)cc21 | active: 3.98 µM |

| Compound | Potency |
| --- | --- |
| CCOc1ncccc1C(=O)NCCc1ccc(OC)cc1 | inconclusive: 22.4 µM [inhibitor, single point] |
| O=S(=O)(c1ccc2nc(-c3ccccc3)[nH]c2c1)N1CCN(c2ccc(Cl)cc2)CC1 | inconclusive: 12.6 µM [inhibitor, single point] |
| CC(=O)Nc1cccc(-c2ccnc3c2CC(C(=O)NCCc2ccccc2)O3)c1 (configuration not stated) | inconclusive: 2.82 µM [inhibitor, full curve, poor fit] |
| c1ccc(-c2nc3ccccn3c2NC2CCCC2)nc1 | inactive |
| O=C1/C(=C\c2ccco2)SC(=S)N1Cc1ccccc1 | inconclusive: 31.6 µM [inhibitor, single point] |
| Cc1ccc(NN2C(=O)C=C(c3ccccc3)C2=O)cc1 | inconclusive: 35.5 µM [inhibitor, single point] |
| CCOc1ccccc1N1CC(C(=O)Nc2nccs2)CC1=O (configuration not stated) | inactive |
| Cc1c(=O)n(OCc2ccccc2F)c2ccccc2[n+]1[O-] | inconclusive: 28.2 µM [inhibitor, single point] |
| N#CCCn1cc(C(=O)CN2C(=O)C(=O)N(C3CCCC3)C2=O)c2ccccc21 | inactive |
| Cc1cc(C(=O)OCCN2C(=O)c3ccccc3C2=O)c2ccccc2n1 | inconclusive: 11.2 µM [inhibitor, single point] |
| CCCCc1ccc(-n2nc3ccc(NC(=O)c4cc5ccccc5o4)cc3n2)cc1 | inconclusive: 25.1 µM [inhibitor, single point] |
| OC(CN1CCCCC1)c1ccccc1 (configuration not stated) | inactive |
| COc1ccc(NC(=O)CSc2nnc(-c3ccccc3C)n2N)cc1 | inactive |
| O=C(c1cc(=O)[nH]c2ccccc12)N1CCN(c2cccc(C(F)(F)F)c2)CC1 | inactive |
| CC1CCN(c2cc(N(C)CCO)c([N+](=O)[O-])c3nonc23)CC1 | inactive |
| COc1ccc(C(=O)N/N=C2\CCS(=O)(=O)c3ccc(F)cc32)cc1OC | inconclusive: 22.4 µM [inhibitor, single point] |
| COc1ccc(F)cc1-c1cc(NC=O)c2ncc(-c3cc(OC)c(OC)c(OC)c3)n2c1 | inconclusive: 0.355 µM [inhibitor, full curve, poor fit] |
| CC(=O)Nc1cccc(-c2ccnc3c2CC(C)(C(=O)NCCc2ccccc2)O3)c1 (configuration not stated) | inconclusive: 1.58 µM [inhibitor, full curve, poor fit] |
| CCOc1cc2c(cc1/C=C/c1noc(C)c1[N+](=O)[O-])OC(C)C2 (configuration not stated) | inconclusive: 12.6 µM [inhibitor, partial curve, poor fit] |
| CCc1ccc(-c2cc(C)no2)cc1S(=O)(=O)NCc1ccco1 | inconclusive: 31.6 µM [inhibitor, partial curve, poor fit] |
| N#CC(C#N)=C1C(=O)N(CCN2CCOCC2)c2ccccc21 | inactive |
| CN(C)c1ccc(/C=C2\SC(N3CCCCC3)=NC2=O)cc1 | inconclusive: 14.1 µM [inhibitor, single point] |
| CC1=NN(c2ccccc2)C(=O)/C1=C/c1cccs1 | inconclusive: 35.5 µM [inhibitor, partial curve, poor fit] |
| COc1ccc(C(NC(C)=O)c2ccc3cccnc3c2O)c(OC)c1 (configuration not stated) | inconclusive: 12.6 µM [inhibitor, single point] |
